Assay results reported in the supplement of paper PMC8728848.
The list shows a part of the results.

Columns and labels:
Test in all cases: glycan array binding signal (z-score within array); higher = stronger binding
Details in all cases: glycan notation: IUPAC condensed, linker removed
[1] = target: Neu5Ac(a2-6)Gal(b1-4)GlcNAc(b1-6)GalNAc
How it was run: (§1)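 Glycan array data came from 3228 arrays in the Consortium for Functional Glycomics database, and only arrays with an available protein sequence were kept. Glycan names were put into IUPAC-condensed notation, and columns mapping to the same glycan were averaged. The binding signal is a within-array Z-score, averaged across arrays of one protein sequence run at different concentrations or buffers and across linkers. A negative Z-score can be read as non-binding.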

[2] = target: Neu5Ac(a2-6)Gal(b1-4)GlcNAc(b1-6)[Gal(b1-3)GlcNAc(b1-3)]Gal(b1-4)Glc
How it was run: as §1

[3] = target: Neu5Ac(a2-6)Gal(b1-4)GlcNAc(b1-6)[Gal(b1-3)]GalNAc
How it was run: as §1

[4] = target: Neu5Ac(a2-6)Gal(b1-4)GlcNAc6S
How it was run: as §1

Neu5Ac(a2-6)GalNAc = target: Neu5Ac(a2-6)GalNAc
How it was run: as §1

[5] = target: Neu5Ac(a2-6)GalNAc(b1-4)GlcNAc
How it was run: as §1

[6] = target: Neu5Ac(a2-6)GalNAc(b1-4)GlcNAc6S
How it was run: as §1

[7] = target: Neu5Ac(a2-6)GlcNAc(b1-4)GlcNAc
How it was run: as §1

[8] = target: Neu5Ac(a2-6)GlcNAc(b1-4)GlcNAc(b1-4)GlcNAc
How it was run: as §1

Neu5Ac(a2-8)Neu5Ac = target: Neu5Ac(a2-8)Neu5Ac
How it was run: as §1

[9] = target: Neu5Ac(a2-8)Neu5Ac(a2-3)Gal(b1-3)GalNAc(b1-4)[Neu5Ac(a2-3)]Gal(b1-4)Glc
How it was run: as §1

[10] = target: Neu5Ac(a2-8)Neu5Ac(a2-3)Gal(b1-3)GalNAc(b1-4)[Neu5Ac(a2-8)Neu5Ac(a2-3)]Gal(b1-4)Glc
How it was run: as §1

[11] = target: Neu5Ac(a2-8)Neu5Ac(a2-3)Gal(b1-4)Glc
How it was run: as §1

[12] = target: Neu5Ac(a2-8)Neu5Ac(a2-3)Gal(b1-4)GlcNAc
How it was run: as §1

[13] = target: Neu5Ac(a2-8)Neu5Ac(a2-3)[Gal(b1-3)GalNAc(b1-4)]Gal(b1-4)Glc
How it was run: as §1

[14] = target: Neu5Ac(a2-8)Neu5Ac(a2-3)[GalNAc(b1-4)]Gal(b1-4)Glc
How it was run: as §1

[15] = target: Neu5Ac(a2-8)Neu5Ac(a2-8)Neu5Ac
How it was run: as §1

[16] = target: Neu5Ac(a2-8)Neu5Ac(a2-8)Neu5Ac(a2-3)Gal(b1-4)Glc
How it was run: as §1

[17] = target: Neu5Ac(a2-8)Neu5Ac(a2-8)Neu5Ac(a2-3)[Gal(b1-3)GalNAc(b1-4)]Gal(b1-4)Glc
How it was run: as §1

[18] = target: Neu5Ac(a2-8)Neu5Ac(a2-8)Neu5Ac(a2-3)[GalNAc(b1-4)]Gal(b1-4)Glc
How it was run: as §1

[19] = target: Neu5Ac(a2-8)Neu5Ac(a2-8)Neu5Ac(a2-8)Neu5Ac(a2-3)[GalNAc(b1-4)]Gal(b1-4)Glc
How it was run: as §1

[20] = target: Neu5Ac(a2-8)Neu5Gc(a2-3)Gal(b1-4)GlcNAc
How it was run: as §1

[21] = target: Neu5Ac(b2-6)Gal(b1-4)GlcNAc
How it was run: as §1

Neu5Ac(b2-6)GalNAc = target: Neu5Ac(b2-6)GalNAc
How it was run: as §1

[22] = target: Neu5Ac9Ac(a2-3)Gal(b1-3)GlcNAc
How it was run: as §1

[23] = target: Neu5Ac9Ac(a2-3)Gal(b1-4)GlcNAc
How it was run: as §1

[24] = target: Neu5Ac9Ac(a2-6)Gal(b1-4)GlcNAc
How it was run: as §1

[25] = target: Neu5Gc(a2-3)Gal(b1-3)GlcNAc
How it was run: as §1

[26] = target: Neu5Gc(a2-3)Gal(b1-3)[Fuc(a1-4)]GlcNAc
How it was run: as §1

Neu5Gc(a2-3)Gal(b1-4)Glc = target: Neu5Gc(a2-3)Gal(b1-4)Glc
How it was run: as §1

[27] = target: Neu5Gc(a2-3)Gal(b1-4)GlcNAc
How it was run: as §1

[28] = target: Neu5Gc(a2-3)Gal(b1-4)GlcNAc(b1-3)Gal(b1-4)GlcNAc(b1-2)Man(a1-3)[Neu5Gc(a2-3)Gal(b1-4)GlcNAc(b1-3)Gal(b1-4)GlcNAc(b1-2)Man(a1-6)]Man(b1-4)GlcNAc(b1-4)GlcNAc
How it was run: as §1

[29] = target: Neu5Gc(a2-3)Gal(b1-4)[Fuc(a1-3)]GlcNAc
How it was run: as §1

[30] = target: Neu5Gc(a2-6)Gal(b1-4)GlcNAc
How it was run: as §1

Neu5Gc(a2-6)GalNAc = target: Neu5Gc(a2-6)GalNAc
How it was run: as §1

[31] = target: Neu5Gc(a2-8)Neu5Ac(a2-3)Gal(b1-4)GlcNAc
How it was run: as §1

[32] = target: Neu5Gc(a2-8)Neu5Gc(a2-3)Gal(b1-4)GlcNAc
How it was run: as §1

[33] = target: Neu5Gc(a2-8)Neu5Gc(a2-3)Gal(b1-4)GlcNAc(b1-3)Gal(b1-4)GlcNAc
How it was run: as §1

B1: Cohesin-hLangerin (Homo sapiens) (protein)
chain: LDDLDAVRIKVDTVNAKPGDTVRIPVRFSGIPSKGIANCDFVYSYDPNVLEIIEIEPGDIIVDPNPDKSFDTAVYPDRKIIVFLFAEDSGTGAYAITKDGVFATIVAKVKEGAPNGLSVIKFVEVGGFANNDLVEQKTQFFDGGANVGDTTEPATPTTPVTTPTTTDDLDAASYPRFMGTISDVKTNVQLLKGRVDNISTLDSEIKKNSDGMEAAGVQIQMVNESLGYVRSQFLKLKTSVEKANAQIQILTRSWEEVSTLNAQIPELKSDLEKASALNTKIRALQGSLENMSKLLKRQNDILQVVSQGWKYFKGNFYYFSLIPKTWYSAEQFCVSRNSHLTSVTSESEQEFLYKTAGGLIYWIGLTKAGMEGDWSWVDDTPFNKVQSARFWIPGEPNNAGNNEHCGNIKAPSLQAWNDAPCDKTFLFICKRPYVPSEPHHHHHH
glycan array binding signal (z-score) [1]: -0.363 | glycan array binding signal (z-score) [2]: -0.361 | glycan array binding signal (z-score) [3]: -0.403 | glycan array binding signal (z-score) [4]: -0.387 | glycan array binding signal (z-score) (Neu5Ac(a2-6)GalNAc): -0.371 | glycan array binding signal (z-score) [5]: -0.418 | glycan array binding signal (z-score) [6]: -0.405 | glycan array binding signal (z-score) [7]: -0.441 | glycan array binding signal (z-score) [8]: -0.447 | glycan array binding signal (z-score) (Neu5Ac(a2-8)Neu5Ac): -0.422 | glycan array binding signal (z-score) [9]: -0.417 | glycan array binding signal (z-score) [10]: -0.198 | glycan array binding signal (z-score) [11]: -0.429 | glycan array binding signal (z-score) [12]: -0.431 | glycan array binding signal (z-score) [13]: -0.417 | glycan array binding signal (z-score) [14]: -0.342 | glycan array binding signal (z-score) [15]: -0.426 | glycan array binding signal (z-score) [16]: -0.435 | glycan array binding signal (z-score) [17]: -0.401 | glycan array binding signal (z-score) [18]: -0.383 | glycan array binding signal (z-score) [19]: -0.249 | glycan array binding signal (z-score) [20]: -0.395 | glycan array binding signal (z-score) [21]: -0.412 | glycan array binding signal (z-score) (Neu5Ac(b2-6)GalNAc): -0.436 | glycan array binding signal (z-score) [22]: -0.079 | glycan array binding signal (z-score) [23]: -0.363 | glycan array binding signal (z-score) [24]: 0.941 | glycan array binding signal (z-score) [25]: -0.396 | glycan array binding signal (z-score) [26]: -0.194 | glycan array binding signal (z-score) (Neu5Gc(a2-3)Gal(b1-4)Glc): -0.104 | glycan array binding signal (z-score) [27]: -0.364 | glycan array binding signal (z-score) [28]: -0.396 | glycan array binding signal (z-score) [29]: -0.243 | glycan array binding signal (z-score) [30]: -0.164 | glycan array binding signal (z-score) (Neu5Gc(a2-6)GalNAc): -0.305 | glycan array binding signal (z-score) [31]: -0.431 | glycan array binding signal (z-score) [32]: -0.437 | glycan array binding signal (z-score) [33]: -0.438
